Reference: patent US20100311683A1, “CYTIDINE ANALOGS FOR TREATMENT OF MYELODYSPLASTIC SYNDROMES” (priority 2007, published 2010)

Tests used:
[1] = system: patients with higher risk MDS
[2] = system: patients with higher risk MDS; experiment: Phase III AZA-001 trial: azacitidine vs conventional care regimens (overall survival, AML transformation, IWG 2000 response, transfusion independence, infections, safety); conditions: in vivo
[3] = system: patients with higher risk MDS; remark: listed apart in the source
[4] = system: patients with higher risk MDS; experiment: AZA-001 pooled subgroup analysis by Western EU country; type: in vivo, human
[5] = patients pre-selected for LDAC: AZA n=45, LDAC n=49
[6] = pre-selection LDara-C, AZA N=45 / LDara-C N=49
[7] = pre-selection LDara-C, safety population AZA N=45 / LDara-C N=44
[8] = safety population: AZA N=175, LDAC N=44, Std Chemo N=19

Q: With Nc1ccn([C@@H]2O[C@H](CO)[C@@H](O)[C@@H]2O)c(=O)n1 [LDara-C, cytosine 1-β-D-arabinofuranoside] as the compound, how does the “CR+PR rate” value ([1]; patients pre-selected for LDAC) read?
A: 12.2%

Q: And the “HI (major + minor)” value ([1]; patients pre-selected for LDAC)?
A: 25.0%

Q: And the deaths during study ([1]; patients pre-selected for LDAC)?
A: 59%

Q: What about the “transfusion independence in baseline-dependent patients” value ([1]; patients pre-selected for LDAC) of the same compound?
A: 13%

Q: And the “median OS” value [1, 5]?
A: 15.3 months

Q: What about the “rate of early discontinuation” value [1, 5] of the same compound?
A: 67%

Q: And the “deaths considered related to treatment during the first 3 cycles” value [2]?
A: 1 patients

Q: And the “deaths reported during treatment and follow-up” value ([3]; by treatment group)?
A: 59%

Q: What about the “discontinuation / early withdrawal due to blood cytopenias” value ([3]; by treatment group) of the same compound?
A: 4.5%

Q: And the “Anemia, baseline Grade 0-2 shifting to Grade 3-4 during treatment” value ([3]; pre-selection LDara-C)?
A: (76) %

Q: And the “HI-E Major rate” value ([3]; pre-selection LDara-C)?
A: (9.8) %

Q: And the “HI-N Major rate” value ([3]; pre-selection LDara-C)?
A: (10.7) %

Q: What about the “HI-P Major rate” value ([3]; pre-selection LDara-C) of the same compound?
A: (19.4) %

Q: What about the “IWG Any hematologic improvement rate” value ([3]; pre-selection LDara-C) of the same compound?
A: (25.0) %

Q: What about the “Neutropenia, baseline Grade 0-2 shifting to Grade 3-4 during treatment” value ([3]; pre-selection LDara-C) of the same compound?
A: (79) %

Q: And the “Thrombocytopenia, baseline Grade 0-2 shifting to Grade 3-4 during treatment” value ([3]; pre-selection LDara-C)?
A: (97) %

Q: And the “rate of infections requiring intravenous antimicrobials” value ([3]; pre-selection LDara-C)?
A: 1.00 per patient year

Q: And the “Complete Remission (CR) rate” value [3, 6]?
A: (8.2) %

Q: What about the “Kaplan-Meier median overall survival” value [3, 6] of the same compound?
A: 15.3 months

Q: What about the “Partial Remission (PR) rate” value [3, 6] of the same compound?
A: (4.1) %

Q: And the “Stable Disease (SD) rate” value [3, 6]?
A: (36.7) %

Q: What about the “Deaths during first 3 cycles of treatment” value ([3]; pre-selection LDara-C, ITT) of the same compound?
A: (14) %

Q: What about the “Deaths, overall” value ([3]; pre-selection LDara-C, ITT, AZA N=45 / LDara-C N=49) of the same compound?
A: (63) %

Q: What about the “Grade 3-4 Anemia” value [3, 7] of the same compound?
A: (77) %

Q: What about the “Grade 3-4 Neutropenia” value [3, 7] of the same compound?
A: (89) %

Q: What about the “Grade 3-4 Thrombocytopenia” value [3, 7] of the same compound?
A: (96) %

Q: What about the “Anemia, baseline Grade 0-2 shifting to Grade 3-4 during treatment” value ([3]; safety population) of the same compound?
A: 79%

Q: And the “Neutropenia, baseline Grade 0-2 shifting to Grade 3-4 during treatment” value ([3]; safety population)?
A: 79%

Q: What about the “Thrombocytopenia, baseline Grade 0-2 shifting to Grade 3-4 during treatment” value ([3]; safety population) of the same compound?
A: 97%

Q: What about the “Grade 3-4 Anemia” value [3, 8] of the same compound?
A: 76%

Q: And the “Grade 3-4 Neutropenia” value [3, 8]?
A: 88%

Q: What about the “Grade 3-4 Thrombocytopenia” value [3, 8] of the same compound?
A: 98%

Q: And the “HR OS, pooled LDAC group vs pooled BSC group” value ([4]; France/UK n=36 vs Germany, Italy, Spain n=69)?
A: 0.95

Q: What about the OS ([4]; pooled LDAC group, France/UK, n=36) of the same compound?
A: 16.9 months

Where two headings read alike, the source gives them in different places.
